# In the supplement of paper PMC10037445:
# Whole data set: some 2,900 compounds, median “IRF Lucia reporter activity, fold change vs agonist alone” near 0.9, cut for the highest 2% near 2.8. Some of the results follow.
# Tests used:
# RAW-Dual [1] = experiment: IRF Lucia reporter activity, fold change vs agonist alone; cytotoxicity flag (confluency mask): not cytotoxic; higher = enhanced IRF activity
# Summary of the method: (§1)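 Library stock was pin-tooled at 50 nL into 384-well plates of RAW-Dual macrophages (50,000 cells/well, DMEM), followed 1 h later by a PRR agonist, and the cells were kept at 37 °C, 5% CO2. Supernatant collected after 20 hours was read for IRF by QuantiLuc luminescence and for NF-κB by QuantiBlue absorbance at 620 nm. Reporter activity is fold change over agonist-alone wells, and a well counted as cytotoxic when its IncuCyte confluency was below 70% of agonist controls in both mask sets.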
# RAW-Dual [2] = experiment: IRF Lucia reporter activity, fold change vs agonist alone; higher = enhanced IRF activity; conditions: agonist: MPLA (TLR4) […]
# Summary of the method: as §1
# RAW-Dual [3] = experiment: IRF Lucia reporter activity, fold change vs agonist alone; cytotoxicity flag (confluency mask): cytotoxic (confluency <70% of control); higher = enhanced IRF activity
# Summary of the method: as §1
# [4] = agonist: 3'3'-cGAMP (STING) 10 ug/mL
# [5] = library stock concentration (final ~1000-fold dilution): 10 mM, cytotoxicity flag (confluency mask): not cytotoxic
# [6] = library stock concentration (final ~1000-fold dilution): 10 mM, cytotoxicity flag (confluency mask): cytotoxic (confluency <70% of control)
smiles,measurement,setting,value
COc1ccc(S(=O)(=O)Nc2cccnc2Nc2ccc(O)cc2)cc1 (library stock concentration (final ~1000-fold dilution): 10 mM),IRF Lucia reporter activity,RAW-Dual [1]; [4],0.0892
same,IRF Lucia reporter activity,RAW-Dual [1]; agonist: LPS (TLR4) 0.1 ug/mL,1.68
COc1ccc(S(=O)(=O)Nc2cccnc2Nc2ccc(O)cc2)cc1,IRF Lucia reporter activity,RAW-Dual [2]; [5],1.36
O=C1NCCc2[nH]c(-c3ccncc3)cc21,IRF Lucia reporter activity,RAW-Dual [2]; [6],0.0311
O=C1NCCc2[nH]c(-c3ccncc3)cc21 (library stock concentration (final ~1000-fold dilution): 10 mM),IRF Lucia reporter activity,RAW-Dual [3]; [4],0.0453
same,IRF Lucia reporter activity,RAW-Dual [3]; agonist: LPS (TLR4) 0.1 ug/mL,0.0198
COc1ccccc1N1CCN(CCCNc2cc(=O)n(C)c(=O)n2C)CC1.Cl (library stock concentration (final ~1000-fold dilution): 10 mM),IRF Lucia reporter activity,RAW-Dual [1]; [4],1.09
same,IRF Lucia reporter activity,RAW-Dual [1]; agonist: LPS (TLR4) 0.1 ug/mL,0.867
COc1ccccc1N1CCN(CCCNc2cc(=O)n(C)c(=O)n2C)CC1.Cl,IRF Lucia reporter activity,RAW-Dual [2]; [5],0.952
O=C(/C=C/c1ccc(O)c(O)c1)c1ccc(O)cc1O (library stock concentration (final ~1000-fold dilution): 10 mM),IRF Lucia reporter activity,RAW-Dual [1]; [4],0.0216
same,IRF Lucia reporter activity,RAW-Dual [1]; agonist: LPS (TLR4) 0.1 ug/mL,0.117
O=C(CCCCCCC(=O)Nc1ccccc1)NO,IRF Lucia reporter activity,RAW-Dual [2]; [6],0.364
O=C(CCCCCCC(=O)Nc1ccccc1)NO (library stock concentration (final ~1000-fold dilution): 10 mM),IRF Lucia reporter activity,RAW-Dual [3]; [4],0.0902
same,IRF Lucia reporter activity,RAW-Dual [3]; agonist: LPS (TLR4) 0.1 ug/mL,0.52
CCC1OC(=O)C(C)C(OC2CC(C)(OC)C(O)C(C)O2)C(C)C(OC2OC(C)CC(N(C)C)C2O)C(C)(O)CC(C)CN(C)C(C)C(O)C1(C)O.O.O (stereo unspecified) (library stock concentration (final ~1000-fold dilution): 10 mM),IRF Lucia reporter activity,RAW-Dual [1]; [4],0.207
same,IRF Lucia reporter activity,RAW-Dual [1]; agonist: LPS (TLR4) 0.1 ug/mL,1.31
CCC1OC(=O)C(C)C(OC2CC(C)(OC)C(O)C(C)O2)C(C)C(OC2OC(C)CC(N(C)C)C2O)C(C)(O)CC(C)CN(C)C(C)C(O)C1(C)O.O.O (stereo unspecified),IRF Lucia reporter activity,RAW-Dual [2]; [5],1.19
CN1C(=O)NC(Cc2c[nH]c3c(Cl)cccc23)C1=O (stereo unspecified) (library stock concentration (final ~1000-fold dilution): 10 mM),IRF Lucia reporter activity,RAW-Dual [1]; [4],0.896
same,IRF Lucia reporter activity,RAW-Dual [1]; agonist: LPS (TLR4) 0.1 ug/mL,0.697
Cc1cc(C(=O)NC(C)(C)C)cc(C#Cc2ccc3c4c(oc3c2)C(C)(C)c2cc(NS(C)(=O)=O)ccc2C4=O)n1 (library stock concentration (final ~1000-fold dilution): 10 mM),IRF Lucia reporter activity,RAW-Dual [1]; [4],0.196
same,IRF Lucia reporter activity,RAW-Dual [1]; agonist: LPS (TLR4) 0.1 ug/mL,0.504
CC(=O)OC(CC=C(C)C)C1=CC(=O)c2c(O)ccc(O)c2C1=O (stereo unspecified) (library stock concentration (final ~1000-fold dilution): 2 mM),IRF Lucia reporter activity,RAW-Dual [1]; [4],0.0252
same,IRF Lucia reporter activity,RAW-Dual [1]; agonist: LPS (TLR4) 0.1 ug/mL,0.288
C[N+](C)(C)NCCC(=O)O (library stock concentration (final ~1000-fold dilution): 10 mM water),IRF Lucia reporter activity,RAW-Dual [1]; [4],1.05
same,IRF Lucia reporter activity,RAW-Dual [1]; agonist: LPS (TLR4) 0.1 ug/mL,0.979
C[N+](C)(C)NCCC(=O)O,IRF Lucia reporter activity,"RAW-Dual [2]; library stock concentration (final ~1000-fold dilution): 10 mM water, cytotoxicity flag (confluency mask): not cytotoxic",1.25
